Experimental data as given in patent US5328921A, “Aryl pyridinium compounds which are useful in treating shock” (American Cyanamid Company, priority 1992, dated 1994).
Several values for one entry are separate records, joined by “and”; a condition that tells them apart may be missing. Equal values may be shown once. Where a name gives a salt, the structure may show the parent alone. The name of at least one read-out is uncertain.

Target: T1, PAF receptor (Oryctolagus cuniculus, UniProt G1TEI7)
T1 construct: centrifuged at 800 rpm for 10-15 minutes at room temperature to recover the platelet rich plasma (PRP); endogenous in cells; host or cells: rabbit platelets (platelet rich plasma from citrated blood of male New Zealand White rabbits)
T1 sequence (G1TEI7 1-342): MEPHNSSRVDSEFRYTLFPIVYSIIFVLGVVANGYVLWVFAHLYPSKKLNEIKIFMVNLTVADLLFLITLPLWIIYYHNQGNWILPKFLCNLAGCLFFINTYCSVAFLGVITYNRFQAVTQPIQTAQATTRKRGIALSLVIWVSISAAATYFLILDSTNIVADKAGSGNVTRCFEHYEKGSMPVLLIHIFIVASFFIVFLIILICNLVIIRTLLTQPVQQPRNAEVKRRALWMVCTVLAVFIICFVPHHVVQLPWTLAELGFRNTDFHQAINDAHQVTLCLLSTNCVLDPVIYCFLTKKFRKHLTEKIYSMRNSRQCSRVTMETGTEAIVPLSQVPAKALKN
Test: In vitro PAF antagonism: inhibition of PAF induced platelet aggregation in rabbit platelet rich plasma
Format: cell-based, rabbit (male New Zealand White)
Conditions: rabbit PRP
Description: Test compounds are evaluated as PAF receptor antagonists in vitro by measuring inhibition of PAF (platelet activating factor) induced platelet aggregation. Platelet aggregation is measured by a modification of the method described in A. Wissnet, et. al., J. Med. Chem., 27 1174, 1984.
Approximately 120-240 ml of blood is collected by cardiac puncture from unanesthetized male New Zealand White rabbits (Whaley's Summit View Farms, Belvedere, N.J.) with the use of 3.2% sodium citrate anticoagulant (1 part of citrate/10 parts of blood). All syringes and pipers are plastic. The blood is gently mixed and immediately centrifuged at 800 rpm for 10-15 minutes at room temperature to recover the platelet rich plasma (PRP). Platelet poor plasma (PPP) is prepared by centrifuging PRP at 2800 rpm for 10 minutes at room temperature.
Dilutions (113000) of PRP in Isoton, diluent are made and platelet counts are determined on a Coulter Thrombocounter which is standardized with platelet reference standards (Interscience Platelet Control, Portland, Oreg.). PRP platelet counts are adJusted to approximately 400,000-500,000 platelets/11 by the addition of PPP.
L-PAF (Platelet Activating Factor) is obtained from Calbiochem. A stock solution of 1-2 E-3M is prepared in 10% ethanol in water or 100% methanol and serial working dilutions are made using saline. E-3M stock solutions of test compounds are prepared in 100% methanol and serially diluted in PBS. Sonication of samples before testing in biological screens assists in the solubility of compounds in the liquid medium. All solutions are made up in plastic tubes, stored on ice and protected from heat and light. Solutions are prepared fresh or frozen at -20° C. and used within 48 hours.
Incubation mixtures consisted of 400 11 PRP, 50 11 of saline diluent or test compound and 50 11 of PAF agohist. More specifically, 40011 of PRP is stabilized in a cuvette for 1-2 minutes at 37° C. in the aggregometer to achieve a stable baseline, then 50 11 of saline or test compound is added and incubated for 5 minutes before addition of the challenge concentration of PAF. A submaximal concentration is determined from the dose response curve for PAF for that experiment. In general, the challenge concentration is 5E-8 or 1E-7M. Aggregation is monitored for 5 minutes. Samples containing test compound or diluent are run simultaneously for comparison. Test compounds are initially evaluated at a screening concentration of 1E-SM.
The recording equipment consists of a dual channel Chronolog aggregometer connected to a dual channel 10MV full scale deflection Omniscribe chart recorder (Houston Instruments). The chart recorder is calibrated daily with the use of a suspension of Bio-Rad latex beads (S-X 12 400 mesh) which has a density slightly greater than rabbit PRP. The bead suspension is used to set the 0% light transmission mark and clear water is used to set the 100% light transmission mark. These limits defined a full scale deflection. The aggregation traces are analyzed by a digitizing method (C. Kohler and B. Zoltan, J. Pharm. Methods, 12, 113, 1984) with x, y coordinate data stored in a computer file. A suitable program computes parameters of interest such as the magnitude of aggregation.

[1] = Dose 1.00E-05 M, PAF challenge 1.00E-07 M
[2] = Dose 1.00E-05 M, PAF challenge 5.00E-08 M
[3] = Dose 1.00E-04 M, PAF challenge 1.00E-08 M
[4] = Dose 1.00E-04 M, PAF challenge 5.00E-08 M
[5] = Dose 5.00E-04 M, PAF challenge 5.00E-08 M

CCCCCCCCCCCCCCCCOc1ccc(OCC(=O)NCCc2cccc[n+]2CC)cc1.[I-] [1-Ethyl-2-[2-[[[4-(hexadecyloxy)phenoxy]acetyl]-amino]ethyl]pyridinium iodide]
% INH (% of inhibition of PAF induced platelet aggregation) [1]: 63%

CCCCCCCCCCCCCCOc1ccc(C(=O)NCc2cccc[n+]2CC)cc1.[I-] [1-Ethyl-2-[[[4-(tetradecyloxy)benzoyl]amino]methyl]-pyridinium iodide]
% INH (% of inhibition of PAF induced platelet aggregation) [2]: 0% and 6%

CCCCCCCCCCCCCCCCOc1ccc(OCC(=O)NCc2cccc[n+]2CC)cc1.[I-] [1-Ethyl-2-[[[[4-(hexadecyloxy)phenoxy]acetyl]amino]-methyl]pyridinium iodide]
% INH (% of inhibition of PAF induced platelet aggregation) [2]: 52% and 58% and 74%

CCCCCCCCCCCCCCOc1ccc(C(=O)NCCc2cccc[n+]2C)cc1.[I-] [1-Methyl-2-[2-[[4-(tetradecyloxy)benzoyl]amino]-ethyl]pyridinium iodide]
% INH (% of inhibition of PAF induced platelet aggregation) [3]: 97% | % INH (% of inhibition of PAF induced platelet aggregation) [2]: 0%

CCCCCCCCCCCCCCOc1ccc(CC(=O)NCCc2cccc[n+]2C)cc1.[I-] [1-Methyl-2-[2-[[[4-(tetradecyloxy)phenyl]acetyl]-amino]ethyl]pyridinium iodide]
% INH (% of inhibition of PAF induced platelet aggregation) [4]: 97% | % INH (% of inhibition of PAF induced platelet aggregation) [2]: 0%

CCCCCCCCCCCCCCOc1ccc(C(=O)N(Cc2cccc[n+]2C)S(C)(=O)=O)cc1 [1-Methyl-2-[[(methylsulfonyl)[4-(tetradecyloxy)-benzoyl]amino]methyl]pyridinium salt with trifluoromethanesulfonic acid (1:1)]
% INH (% of inhibition of PAF induced platelet aggregation) [2]: 23%

CCCCCCCCCCCCCCOc1ccc(C(=O)NCc2cccc[n+]2C)cc1OCCCCCCCCCCCCCC.[I-] [1-Methyl-2-[[[3,4-bis(tetradecyloxy)benzoyl]amino]-methyl]pyridinium iodide]
% INH (% of inhibition of PAF induced platelet aggregation) [2]: 0%

CCCCCCCCCCCCCCOc1cccc(CN(Cc2cccc[n+]2C)S(=O)(=O)c2ccc(C)cc2)c1.[I-] [1-Methyl-2-[[[(4-methylphenyl)sulfonyl][[3-(tetradecyloxy)phenyl]methyl]amino]methyl]pyridinium iodide]
% INH (% of inhibition of PAF induced platelet aggregation) [2]: 10%

CCCCCCCCCCCCCCOc1ccc(CN(C(=O)c2ccc[n+](C)c2)c2ccccc2)cc1.[I-] [1-Methyl-3-[[phenyl[[4-(tetradecyloxy)phenyl]methyl]-amino]carbonyl]pyridinium iodide]
% INH (% of inhibition of PAF induced platelet aggregation) [2]: 15%

CCCCCCCCCCCCCCOc1ccc(CNC(=O)c2cc[n+](C)cc2)cc1.[I-] [1-Methyl-4-[[[[4-(tetradecyloxy)phenyl]methyl]amino]-carbonyl]pyridinium iodide]
% INH (% of inhibition of PAF induced platelet aggregation) [4]: 76% | % INH (% of inhibition of PAF induced platelet aggregation) [2]: 0%

CCCCCCCCCCCCCCOc1ccc(C(=O)N(Cc2cccc[n+]2C)C(=O)c2ccccc2OC)cc1 [2-[[(2-Methoxybenzoyl)[4-(tetradecyloxy)]benzoyl]-amino]methyl]-1-methylpyridinium iodide]
% INH (% of inhibition of PAF induced platelet aggregation) (Dose 5.00E-05 M, PAF challenge 5.00E-08 M): 0%

CCCCCCCOc1ccc(C(=O)N(Cc2cccc[n+]2C)C(C)=O)cc1OCCCCCCC.[I-] [2-[[Acetyl[3,4-bis(heptyloxy)benzoyl]amino]methyl]-1-methylpyridinium iodide]
% INH (% of inhibition of PAF induced platelet aggregation) [2]: 87%

CCCCCCCCCCCCCCOc1ccc(C(=O)N(Cc2cccc[n+]2C)C(C)=O)cc1OCCCCCCCCCCCCCC.[I-] [2-[[Acetyl[3,4-bis(tetradecyloxy)benzoyl]amino]-methyl]-1-methylpyridinium iodide]
% INH (% of inhibition of PAF induced platelet aggregation) [2]: 11%

CCCCCCCCCCCCCCOc1ccc(C(=O)N(Cc2cccc[n+]2C)C(C)=O)cc1C(C)(C)C.[I-] [2-[[Acetyl[3-(1,1-dimethylethyl)-4-(tetradecyloxy)-benzoyl]amino]methyl]-1-methylpyridinium iodide]
% INH (% of inhibition of PAF induced platelet aggregation) [1]: 95% and 93% | % INH (% of inhibition of PAF induced platelet aggregation) [2]: 87%

CCCCCCCCCCCCCCOc1ccc(C(=O)N(Cc2cccc[n+]2C)C(C)=O)cc1OC.[I-] [2-[[Acetyl[3-methoxy-4-(tetradecyloxy)benzoyl]amino]-methyl]-1-methylpyridinium iodide]
% INH (% of inhibition of PAF induced platelet aggregation) [1]: 92% and 96% and 82% | % INH (% of inhibition of PAF induced platelet aggregation) [2]: 88%

CCCCCCCCCCOc1ccc(C(=O)N(Cc2cccc[n+]2C)C(C)=O)cc1C(C)(C)C.[I-] [2-[[Acetyl[4-(decyloxy)-3-(1,1-dimethylethyl)-benzoyl]amino]methyl]-1-methylpyridinium iodide]
% INH (% of inhibition of PAF induced platelet aggregation) [2]: 16%

CCCCCCCCCCCCCCOc1ccc(C(=O)N(Cc2cccc[n+]2Cc2ccccc2)C(C)=O)cc1.[Br-] [2-[[Acetyl[4-(tetradecyloxy)benzoyl]amino]methyl]-1-(phenylmethyl)pyridinium bromide]
% INH (% of inhibition of PAF induced platelet aggregation) [4]: 33% | % INH (% of inhibition of PAF induced platelet aggregation) [2]: 0%

CCCCCCCCCCCCCCOc1cc(C(=O)N(Cc2cccc[n+]2C)C(C)=O)ccc1OC.[I-] [2-[[Acetyl[4-methoxy-3-(tetradecyloxy)benzoyl]-amino]methyl]-1-methylpyridinium iodide]
% INH (% of inhibition of PAF induced platelet aggregation) [2]: 34%

CCCCCCCCCCCCCCOc1ccccc1CN(Cc1cccc[n+]1C)C(C)=O.[I-] [2-[[Acetyl[[2-(tetradecyloxy)phenyl]methyl]amino]-methyl]-1-methylpyridinium iodide]
% INH (% of inhibition of PAF induced platelet aggregation) [4]: 92% | % INH (% of inhibition of PAF induced platelet aggregation) [2]: 0%

CCCCCCCCCCCCCCCCOc1ccc(OCC(=O)N(Cc2cccc[n+]2C)C(C)=O)cc1.[I-] [2-[[Acetyl[[4-(hexadecyloxy)phenoxy]acetyl]amino]-methyl]-1-methylpyridinium iodide]
% INH (% of inhibition of PAF induced platelet aggregation) [2]: 0% | % INH (% of inhibition of PAF induced platelet aggregation) [5]: 70%

CCCCCCCCCCCCCCOc1ccc(COC(=O)N(Cc2cccc[n+]2C)C(C)=O)cc1 [2-[[Acetyl[[[4-(tetradecyloxyphenyl]methoxy]-carbonyl]amino]methyl]-1-methylpyridinium iodide]
% INH (% of inhibition of PAF induced platelet aggregation) [2]: 0% and 6%

CCCCCCCCCCCCCCOc1ccc(C(=O)N(Cc2ccc[n+](C)c2)C(C)=O)cc1C(C)(C)C.[I-] [3-[[Acetyl[3-(1,1-dimethylethyl)-4-(tetradecyloxy)-benzoyl]amino]methyl]-1-methylpyridinium iodide]
% INH (% of inhibition of PAF induced platelet aggregation) [2]: 46%

CCCCCCCCCCCCCCOc1ccc(C(=O)N(Cc2ccc[n+](C)c2)C(C)=O)cc1.[I-] [3-[[Acetyl[4-(tetradecyloxy)benzoyl]amino]methyl]-1-methylpyridinium iodide]
% INH (% of inhibition of PAF induced platelet aggregation) [2]: 62%

CCCCCCCCCCCCCCOc1ccc(N(Cc2ccc[n+](C)c2)C(C)=O)cc1.[I-] [3-[[Acetyl[4-(tetradecyloxy)phenyl]amino]methyl]-1-methylpyridinium iodide]
% INH (% of inhibition of PAF induced platelet aggregation) [1]: 0%

CCCCCCCCCCCCCCOc1ccc(CN(Cc2ccc[n+](C)c2)C(C)=O)cc1.[I-] [3-[[Acetyl[[4-(tetradecyloxy)phenyl]methyl]amino]-methyl]-1-methylpyridinium iodide]
% INH (% of inhibition of PAF induced platelet aggregation) [3]: 89% | % INH (% of inhibition of PAF induced platelet aggregation) [2]: 0% | % INH (% of inhibition of PAF induced platelet aggregation) [5]: 88%

CCCCCCCCCCCCCCOc1ccc(CN(C(=O)c2ccc[n+](CCC)c2)c2ccccc2)cc1.[I-] [3-[[Phenyl[[4-(tetradecyloxy)phenyl]methyl]amino]-carbonyl]-1-propylpyridinium iodide]
% INH (% of inhibition of PAF induced platelet aggregation) [2]: 12%
